Reference: PubChem BioAssay AID624417 (National Center for Advancing Translational Sciences (NCATS), 2012)
Screen size: about 410,000 compounds; about 6,400 (1.6%) were called active. Inconclusive means that the source gave no clear call. Such entries were picked first, then a sample of the others. Calls come from the whole dose curve; as a rule, active = well fitted inhibition curve with a large enough effect; inconclusive = small, poorly fitted or top-dose-only effect; inactive = no such curve, though single readings can be large or run the other way. Potencies of inconclusive entries are left out as doubtful fits.
% is set by controls: 0 for no effect and ±100 for the full control effect; potency is the fitted concentration of half-maximal effect; tags give direction and shape of the fitted curve.
Note: nearly all actives have a fitted effect of over 55% in size.

The compounds below were run against Glucagon-like peptide 1 receptor (Homo sapiens) (UniProt P43220) (assay: qHTS of GLP-1 Receptor Inverse Agonists (Inhibition Mode)). Settings: HEK293 GLP-1R CRE-luciferase, luminescence, 24 h, GLP-1R form is constitutively active; activity change, negative = inhibition: at 38.3 µM (top of the series) unless noted.
Chain of UniProt P43220 (P43220 whole entry, looked up): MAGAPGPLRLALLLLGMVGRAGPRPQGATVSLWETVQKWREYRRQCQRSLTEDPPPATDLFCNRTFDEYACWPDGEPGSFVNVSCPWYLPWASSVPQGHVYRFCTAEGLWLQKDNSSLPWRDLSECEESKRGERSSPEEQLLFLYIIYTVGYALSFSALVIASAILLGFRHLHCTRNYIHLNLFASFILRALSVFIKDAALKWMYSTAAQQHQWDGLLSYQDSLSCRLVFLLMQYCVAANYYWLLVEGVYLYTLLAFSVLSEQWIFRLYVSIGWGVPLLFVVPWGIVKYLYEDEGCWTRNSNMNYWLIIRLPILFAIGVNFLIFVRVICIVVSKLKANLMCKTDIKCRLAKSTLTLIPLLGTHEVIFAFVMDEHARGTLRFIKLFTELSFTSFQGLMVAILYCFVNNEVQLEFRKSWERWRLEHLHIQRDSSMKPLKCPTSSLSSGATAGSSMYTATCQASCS
Summary of the method: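 HEK293 cells stably co-expressing constitutively active GLP-1R and a cAMP-responsive luciferase reporter were seeded in DMEM with 10% Nu serum, given compounds after 12 h, and incubated 24 h at 37 deg C. Luminescence was then read.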
O=C(c1ccccc1)N1CCN(C(=O)c2nn3c(C(F)(F)F)cc(-c4ccccc4)nc3c2Br)CC1 was tested, and the Potency was inconclusive [inhibitor, full curve, poor fit].
CCOC(=O)C1=C(CN2CCN(c3cc(C)ccc3C)CC2)NC(=O)NC1c1ccc(Cl)cc1 (centres undefined) was tested, and the Potency was inconclusive [inhibitor, full curve, poor fit].
For COc1cccc(NC(=O)Cc2nc(-c3ccccc3)sc2-c2ccc(C)cc2)c1, the Potency was inconclusive [inhibitor, full curve, poor fit].
For COc1ccc([C@H]2CC(=O)C=C(c3ccccc3C(F)(F)F)C2)cc1, the Potency was inconclusive [inhibitor, single point].
For COc1cccc(OCC(O)CN2CCN(c3ccc(Cl)cc3)CC2)c1 (centres undefined), the Potency was active: 10 µM.
COc1cccc(CN(C)CC2CCCN(CCc3ccccc3C)C2)c1 (centres undefined) was tested, and the Potency was inconclusive [inhibitor, partial curve, poor fit].
CCc1ccc(C(O)c2ncc(-c3ccccc3F)[nH]2)cc1 (centres undefined) was tested, and the “activity change, negative = inhibition” value was inactive: -24.9%.
For CCOc1ccccc1NC(=O)CCCc1ccc(OC)c(C)c1, the Potency was inconclusive [inhibitor, single point].
CCOc1ccccc1C1C2=C(COC2=O)Nc2cc3c(cc21)OCO3 (centres undefined) was tested, and the Potency was inconclusive [inhibitor, full curve, poor fit].
For CCOC1=C2[C@@H](CN(S(=O)(=O)c3ccc(C)cc3)[C@H]2c2ccccc2Cl)[C@H]2C(=O)N(Cc3ccccc3)C(=O)[C@H]2C1, the Potency was inconclusive [inhibitor, single point].
For COc1cccc(N(CC(=O)NCc2ccco2)C(=O)CCC(=O)Nc2nccs2)c1, the “activity change, negative = inhibition” value was inactive: 12.3%.
With Cc1ccc(-n2c(SCC(=O)NCc3ccco3)nc3sc(C)c(C)c3c2=O)cc1 the Potency was inconclusive [inhibitor, full curve, poor fit].
COc1ccc(N2C(=O)c3ccccc3NC23CCC(C)CC3)cc1 (centres undefined) was tested, and the “activity change, negative = inhibition” value was inactive: 4.73%.
COc1ccc(OCC(=O)N2CCN(C(=O)c3ccc(F)cc3)CC2)cc1 was tested, and the Potency was inconclusive [inhibitor, single point].
COc1ccc(-n2cc(C(=O)c3ccccc3O)cn2)cc1 was tested, and the Potency was inconclusive [inhibitor, partial curve, poor fit].
With OCCC1CN(Cc2ccccc2-c2ccco2)CCN1Cc1ccccc1 (centres undefined) the Potency was inconclusive [inhibitor, partial curve].
For C/C(=N\NC(=O)c1cc(Br)ccc1O)c1cccs1, the Potency was inconclusive [inhibitor, single point].
For CC(C)(C)c1ccc(C(=O)Nc2ccc(C(=O)N3CCCC3)cc2)cc1, the Potency was inconclusive [inhibitor, partial curve, poor fit].
For CC(Oc1ccc2c(-c3ccccc3)cc(=O)oc2c1)C(=O)NCCCN1CCOCC1 (centres undefined), the Potency was inconclusive [inhibitor, partial curve, poor fit].
CCNC(=S)N(CCc1c(C)[nH]c2ccccc12)Cc1cc(OC)c(OC)c(OC)c1 was tested, and the Potency was inconclusive [inhibitor, partial curve, poor fit].
For O=C(CSc1nc(C2CC2)nc2ccccc12)N1CCCCC1, the Potency was inconclusive [inhibitor, partial curve, poor fit].
For COc1cccc(NC(=O)CN(C)C(=O)c2cc(-c3ccc(C)o3)nc3ccccc23)c1, the Potency was inconclusive [inhibitor, single point].
With Cc1ccccc1NCC(=O)N/N=C/c1c[nH]c2ccccc12 the Potency was inconclusive [inhibitor, partial curve, poor fit].
In the case of Cc1cc(C(=O)NC2CCCc3ccccc32)ccc1[N+](=O)[O-] (centres undefined), the Potency was inconclusive [inhibitor, partial curve, poor fit].
With COc1ccc(-c2oc3ncn4nc(-c5ccccc5C)nc4c3c2-c2ccc(OC)cc2)cc1 the “activity change, negative = inhibition” value was inactive: 10.2%.
For CCCCCC(=O)Nc1ccc(N2CCOCC2)c(S(=O)(=O)Nc2ccc(OC)cc2)c1, the Potency was inconclusive [inhibitor, single point].
In the case of COc1ccccc1N1CCN(Cc2cc3c(cc2Br)OCCO3)CC1, the Potency was inconclusive [inhibitor, partial curve, poor fit].
In the case of CCCCSc1nc2sc3c(c2c(=O)n1-c1ccc(C)cc1)CCN(C)C3, the activity change, negative = inhibition was inconclusive: -85.9% [inhibitor].
In the case of Cc1ccccc1N1CCN(c2ncnc3c2cnn3Cc2ccc(Cl)cc2)CC1, the Potency was inconclusive [inhibitor, partial curve, poor fit].
For COc1ccc(CCNC2=C(Cl)C(=O)N(Cc3ccccc3)C2=O)cc1OC, the Potency was inconclusive [inhibitor, partial curve, poor fit].
For O=C(NCC(=O)N1CCN(Cc2ccccc2)CC1)c1ccc(Cl)cc1, the Potency was inconclusive [inhibitor, partial curve, poor fit].
CC(NC(=O)c1ccc(F)cc1)c1nc2ccccc2n1Cc1ccccc1F (centres undefined) was tested, and the “activity change, negative = inhibition” value was inactive: -14%.
With CCCCN(c1ccccc1)S(=O)(=O)c1ccc2c(c1)CC(C)N2C(=O)C1CC1 (centres undefined) the Potency was inconclusive [inhibitor, single point].
In the case of NC(=S)N/N=C/c1ccc(-c2ccc([N+](=O)[O-])cc2)o1, the Potency was inconclusive [inhibitor, single point].
With COc1ccc(C2(CNC(=O)CCC(=O)O)CCCC2)cc1OC the “activity change, negative = inhibition” value was inactive: 4.78%.
For Cc1ccc(NC(=S)Nc2ccc(C(C)C)cc2)cc1S(=O)(=O)N1CCCCCC1, the Potency was inconclusive [inhibitor, partial curve, poor fit].
Cc1nn(Cc2ccc(C(=O)Nc3nccs3)cc2)c(C)c1Cl was tested, and the Potency was inconclusive [inhibitor, full curve, poor fit].
For CCOC(=O)C1=C[C@@H](c2ccccc2)N(S(=O)(=O)c2ccc(C)cc2)[C@H]1c1ccccc1Cl, the Potency was inconclusive [inhibitor, single point].
For O=C(CSCc1c(F)cccc1Cl)NCCc1ccccc1, the Potency was inconclusive [inhibitor, partial curve].
